Measured values taken from patent US5552520A, “Therapeutic peptide derivatives” (Biomeasure, Inc., priority 1994, dated 1996).
For some assays here: At least one peptide structure holds a part that was inferred or is arguable (an end, a ring closure or a residue). For some assays here: At least one structure is not confirmed: it was looked up by name or label, or the drawing left a doubt. Bridge positions count the residues as written; N and C are the ends. Square brackets hold non-standard residues; d marks the D form. Peptide text beside a SMILES is read from it. * marks the point of attachment. X1 = O=C1O[C@H]([C@@H](O)CO)C(OCC(=O)*)=C1OCC(O)CO; 2Nal = N[C@@H](Cc1ccc2ccccc2c1)C(=O)O

How the values were obtained:
[1] = tested on: stimulated growth hormone release; test: Growth Hormone (GH) Inhibition Assay in rats (D-Ala2-GRF stimulated GH); format: in vivo, male Sprague Dawley rats; conditions: s.c.
Protocol: Groups of five male Sprague Dawley rats (each having a weight between 250-300 g) were injected s.c. with a somatostatin derivative or saline. Thirty minutes prior to the selected post-drug time periods shown in table II (2 hours, 4 hours, 6 hours, 8 hours), rats were anesthetized with Nembutal i.p. (50 mg/kg). Fifteen minutes following anesthesia, an aliquot of blood was withdrawn by cardiac puncture over heparin to measure basal GH. Additionally, a s.c. injection of D-Ala^2 -GRF (10 μg/kg) was given. Fifteen minutes later, blood was withdrawn to quantitate the stimulated GH, which was measured in plasma using a radioimmunoassay supplied by NIADDKD. The percentage of GH inhibition was calculated from differences obtained between basal and stimulated GH values.
The efficacy of D-Phe-c[Cys-Tyr-D-Trp-Lys-Thr-Cys]-Nal-NH2 (SEQ ID NO. 113) (BIM-23060) in inhibiting growth hormone in rats is compared with other somatostatin derivatives (BIM-23167, BIM-23179, and BIM-23181) of the invention.
Additional experiments were conducted on D-Phe-c[Cys-Tyr-D-Trp-Lys-Abu-Cys]-Thr-NH2, (SEQ ID NO. 112) a somatostatin analog, and BIM-23190, BIM-23195 and BIM-23197, to determine the ED50 (i.e., the concentration of each compound required to inhibit fifty percent of growth hormone release after a specified time) of the respective compound. Experiments were conducted at a dose range of between 25 μg/kg and 0.25 μg/kg.

[2] = tested on: AR42J rat pancreas tumor cells; test: Antiproliferative assay on AR42J cells; format: cell-based; conditions: Concentration 100 nM, AR42J Rat Pancreas Tumor Cells after 8 days
Protocol: The purified somatostatin analogs described above were also tested for activity against rapidly proliferating cells.
^1 Concentration 100 nM, AR42J Rat Pancreas Tumor Cells after 8 days.

somatostatin receptor = biological target: T1, somatostatin receptor (Rattus norvegicus, UniProt P30680); test: Somatostatin binding assay: in vitro inhibition of binding of [125I-Tyr11]SRIF-14 to rat AR42J pancreas membranes; conditions: inhibition of [125I-Tyr11]SRIF-14 binding, read-out: IC50, in vitro binding affinity
T1 construct: SRIF-14 to rat AR42J pancreas membranes; endogenous in cells; host or cells: rat AR42J pancreatic cells (membrane preparation)
T1 sequence (P30680 whole entry): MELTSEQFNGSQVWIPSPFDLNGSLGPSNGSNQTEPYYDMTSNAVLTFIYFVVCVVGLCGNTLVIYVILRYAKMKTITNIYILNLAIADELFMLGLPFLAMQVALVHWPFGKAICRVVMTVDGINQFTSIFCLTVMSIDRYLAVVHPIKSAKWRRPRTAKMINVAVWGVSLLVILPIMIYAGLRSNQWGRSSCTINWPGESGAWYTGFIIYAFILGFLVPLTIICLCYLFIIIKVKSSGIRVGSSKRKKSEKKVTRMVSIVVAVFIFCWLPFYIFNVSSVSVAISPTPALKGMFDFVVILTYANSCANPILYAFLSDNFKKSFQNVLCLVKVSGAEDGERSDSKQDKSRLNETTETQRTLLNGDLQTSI

Compound | IC50 (somatostatin receptor) | Cell growth (percent of control) [2] | other results
CC[C@@H]1NC(=O)[C@H](CCCCN)NC(=O)[C@@H](Cc2c[nH]c3ccccc23)NC(=O)[C@H](Cc2ccc(O)cc2)NC(=O)[C@@H](NC(=O)[C@@H](Cc2ccccc2)NCC(CO)(CO)CO)CSSC[C@@H](C(=O)N[C@H](C(N)=O)[C@@H](C)O)NC1=O [BIM-23195, (Ho-CH2)3 C-CH2 -D-Phe-C[Cys-Tyr-D-Trp-Lys-Abu-Cys]-Thr-NH2] |  | 69.2% of control | ED50, inhibition of stimulated growth hormone release ([1]; 2 Hours): 1.19 µg/kg; ED50, inhibition of stimulated growth hormone release ([1]; 4 Hours): 3.13 µg/kg; ED50, inhibition of stimulated growth hormone release ([1]; 6 Hours): 2.08 µg/kg; ED50, inhibition of stimulated growth hormone release ([1]; 8 Hours): 3.23 µg/kg
CC[C@@H]1NC(=O)[C@H](CCCCN)NC(=O)[C@@H](Cc2c[nH]c3ccccc23)NC(=O)[C@H](Cc2ccc(O)cc2)NC(=O)[C@@H](NC(=O)[C@@H](Cc2ccccc2)NS(=O)(=O)CCN2CCN(CCO)CC2)CSSC[C@@H](C(=O)N[C@H](C(N)=O)[C@@H](C)O)NC1=O [BIM-23197] |  | 66.4% of control | ED50, inhibition of stimulated growth hormone release ([1]; 2 Hours): 1.01 µg/kg; ED50, inhibition of stimulated growth hormone release ([1]; 4 Hours): 0.59 µg/kg; ED50, inhibition of stimulated growth hormone release ([1]; 6 Hours): 1.14 µg/kg; ED50, inhibition of stimulated growth hormone release ([1]; 8 Hours): 1.59 µg/kg
CC[C@@H]1NC(=O)[C@H](CCCCN)NC(=O)[C@@H](Cc2c[nH]c3ccccc23)NC(=O)[C@H](Cc2ccc(O)cc2)NC(=O)[C@@H](NC(=O)[C@@H](Cc2ccccc2)NC(=O)CNC(CO)(CO)CO)CSSC[C@@H](C(=O)N[C@H](C(N)=O)[C@@H](C)O)NC1=O [BIM-23182, (HO-CH2)3 -C-NH-CH2 -CO-D-Phe-c[Cys-Tyr-D-Trp-Lys-Abu-Cys]-Thr-NH2] |  | 68.7% of control | 
CC[C@@H]1NC(=O)[C@H](CCCCN)NC(=O)[C@@H](Cc2c[nH]c3ccccc23)NC(=O)[C@H](Cc2ccc(O)cc2)NC(=O)[C@@H](NC(=O)[C@@H](Cc2ccccc2)NC(=O)CCC(=O)NC(CO)(CO)CO)CSSC[C@@H](C(=O)N[C@H](C(N)=O)[C@@H](C)O)NC1=O [BIM-23173, (HO-CH2)3 -C-NH-CO-(CH2)2 -CO-D-Phe-c[Cys-Tyr-D-Trp-Lys-Abu-Cys]-Thr-NH2] |  | 67.9% of control | 

Now from value to compound, other results behind:

IC50 (somatostatin receptor) | Compound | Cell growth (percent of control) [2] | other results
300 pM | CC(C)[C@@H]1NC(=O)[C@H](CCCCN)NC(=O)[C@@H](Cc2c[nH]c3ccccc23)NC(=O)[C@H](Cc2ccc(O)cc2)NC(=O)[C@@H](NC(=O)[C@@H](Cc2ccc3ccccc3c2)NC(=O)CCCOC2=C(O)C(=O)O[C@@H]2[C@@H](O)CO)CSSC[C@@H](C(=O)N[C@H](C(N)=O)[C@@H](C)O)NC1=O [BIM-23118] |  | 
300 pM | CC(=O)OCC(COC(C)=O)(COC(C)=O)NC(=O)CCC(=O)N[C@H](Cc1ccc2ccccc2c1)C(=O)N[C@H]1CSSC[C@@H](C(=O)N[C@H](C(N)=O)[C@@H](C)O)NC(=O)[C@H](C(C)C)NC(=O)[C@H](CCCCN)NC(=O)[C@@H](Cc2c[nH]c3ccccc23)NC(=O)[C@H](Cc2ccc(O)cc2)NC1=O [BIM-23107, (AcO-CH2)3 -C-NH-CO-(CH2)2 -CO-D-Nal-c[Cys-Tyr-D-Trp-Lys-Val-Cys]-Thr-NH2] |  | 
220 pM | CC[C@@H]1NC(=O)[C@H](CCCCN)NC(=O)[C@@H](Cc2c[nH]c3ccccc23)NC(=O)[C@H](Cc2ccc(O)cc2)NC(=O)[C@@H](NC(=O)[C@@H](Cc2ccccc2)NC(=O)COC2=C(OCC(O)CO)C(=O)O[C@@H]2[C@@H](O)CO)CSSC[C@@H](C(=O)N[C@H](C(N)=O)[C@@H](C)O)NC1=O (some centres unmarked) [BIM-23183] |  | 
250 pM | C[C@@H](O)[C@@H]1NC(=O)[C@H](CCCCN)NC(=O)[C@@H](Cc2c[nH]c3ccccc23)NC(=O)[C@H](Cc2ccc(O)cc2)NC(=O)[C@@H](NC(=O)[C@@H](Cc2ccccc2)NC(=O)COC2=C(OCC(O)CO)C(=O)O[C@@H]2[C@@H](O)CO)CSSC[C@@H](C(=O)N[C@@H](Cc2ccc3ccccc3c2)C(N)=O)NC1=O (some centres unmarked) [BIM-23181] (X1-[dF]CY[dW]KTC[2Nal]-NH2; disulfide 2-7) |  | 
2520 pM | CC(C)[C@@H]1NC(=O)[C@H](CCCCN)NC(=O)[C@@H](Cc2c[nH]c3ccccc23)NC(=O)[C@H](Cc2ccc(O)cc2)NC(=O)[C@@H](NC(=O)[C@@H](Cc2ccc3ccccc3c2)NC(=O)COC2=C(O)C(=O)O[C@@H]2[C@@H](O)CO)CSSC[C@@H](C(=O)N[C@H](C(N)=O)[C@@H](C)O)NC1=O [BIM-23135] |  | 
